{
  "source": "the supplement of paper PMC8728848",
  "binders": {"B1": {"name": "Blon2468mut (Bifidobacterium longum) (protein)", "chain": "MTFIKQMMPRYVASMTAGIVAAAMAATCAFAPVANADAVSPTQETIQSTGRHFMVYYRAWRDVTMKGVNTDLPDDNWISMYDIPYGVDVVNIFSYVPSGQEEQAQPFYDKLKSDYAPYLHSRGIKLVRGIDYTGVAVNGFRTFMKEQNKTESEATEADYDAYAKQVIDKYMISVGLDGLDIDMQAHPNDADVKISDNVIRALSKHIGPKSAKPDTTMFLYDTNGSYLNPFKNVAECFDYVAYQQYGSSSDRTARAAADYQPYIGNEFVPGLTFPEEGDMNNRWYDATEPYEESHFYQVASYVREHNLGGMFVYALDRDGRNYDEDLRRIVPSNLLWTKTAIAESEGMALDTAKTAANHYLDRMSLRQVIDDNAASADKARDMVGKAANLYETNKAVLGGDYGEGFSNTYDPTLEAGLLGIDISVLQQQIDKSSEIIGADTAESDAKTALRMARDAAIDGLTGKIYTADQVSAWSQALKAALDATVPVPTPDSTDQNGNRDKVTNHKVQGQPKQLSATGISTDIIVAVGVTLAIAGVALSLSRKLS"}},
  "assay_in_all_cases": "glycan array binding signal (z-score within array); higher = stronger binding",
  "conditions_in_all_cases": "glycan notation: IUPAC condensed, linker removed",
  "key": {"[1]": {"molecular_target": "Gal(b1-4)GlcNAc(b1-3)Gal(b1-4)GlcNAc(b1-2)[Gal(b1-4)GlcNAc(b1-3)Gal(b1-4)GlcNAc(b1-6)]Man(a1-6)[Gal(b1-4)GlcNAc(b1-3)Gal(b1-4)GlcNAc(b1-2)Man(a1-3)]Man(b1-4)GlcNAc(b1-4)[Fuc(a1-6)]GlcNAc", "how_it_was_run": "(§1)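 Columns mapping to the same glycan were averaged after glycan names were converted to IUPAC-condensed notation. The data come from 3228 arrays in the Consortium for Functional Glycomics database, limited to those with an available protein sequence. Binding is reported as a within-array Z-score averaged across arrays of one protein sequence and across linkers.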"}, "[2]": {"molecular_target": "Gal(b1-4)GlcNAc(b1-3)Gal(b1-4)GlcNAc(b1-3)Gal(b1-4)GlcNAc", "how_it_was_run": "as §1"}, "[3]": {"molecular_target": "Gal(b1-4)GlcNAc(b1-3)Gal(b1-4)GlcNAc(b1-3)Gal(b1-4)GlcNAc(b1-2)Man(a1-3)[Gal(b1-4)GlcNAc(b1-3)Gal(b1-4)GlcNAc(b1-3)Gal(b1-4)GlcNAc(b1-2)Man(a1-6)]Man(b1-4)GlcNAc(b1-4)GlcNAc", "how_it_was_run": "as §1"}, "[4]": {"molecular_target": "Gal(b1-4)GlcNAc(b1-3)Gal(b1-4)GlcNAc(b1-3)Gal(b1-4)GlcNAc(b1-2)Man(a1-3)[Gal(b1-4)GlcNAc(b1-3)Gal(b1-4)GlcNAc(b1-3)Gal(b1-4)GlcNAc(b1-2)Man(a1-6)]Man(b1-4)GlcNAc(b1-4)[Fuc(a1-6)]GlcNAc", "how_it_was_run": "as §1"}, "[5]": {"molecular_target": "Gal(b1-4)GlcNAc(b1-3)Gal(b1-4)GlcNAc(b1-3)Gal(b1-4)GlcNAc(b1-2)[Gal(b1-4)GlcNAc(b1-3)Gal(b1-4)GlcNAc(b1-3)Gal(b1-4)GlcNAc(b1-6)]Man(a1-6)[Gal(b1-4)GlcNAc(b1-3)Gal(b1-4)GlcNAc(b1-3)Gal(b1-4)GlcNAc(b1-2)Man(a1-3)]Man(b1-4)GlcNAc(b1-4)[Fuc(a1-6)]GlcNAc", "how_it_was_run": "as §1"}, "[6]": {"molecular_target": "Gal(b1-4)GlcNAc(b1-3)Gal(b1-4)GlcNAc(b1-3)Gal(b1-4)GlcNAc(b1-3)Gal(b1-4)GlcNAc(b1-2)Man(a1-3)[Gal(b1-4)GlcNAc(b1-3)Gal(b1-4)GlcNAc(b1-3)Gal(b1-4)GlcNAc(b1-3)Gal(b1-4)GlcNAc(b1-2)Man(a1-6)]Man(b1-4)GlcNAc(b1-4)GlcNAc", "how_it_was_run": "as §1"}, "[7]": {"molecular_target": "Gal(b1-4)GlcNAc(b1-3)Gal(b1-4)GlcNAc(b1-3)Gal(b1-4)GlcNAc(b1-3)Gal(b1-4)GlcNAc(b1-2)Man(a1-3)[Gal(b1-4)GlcNAc(b1-3)Gal(b1-4)GlcNAc(b1-3)Gal(b1-4)GlcNAc(b1-3)Gal(b1-4)GlcNAc(b1-2)Man(a1-6)]Man(b1-4)GlcNAc(b1-4)[Fuc(a1-6)]GlcNAc", "how_it_was_run": "as §1"}, "[8]": {"molecular_target": "Gal(b1-4)GlcNAc(b1-3)Gal(b1-4)GlcNAc(b1-3)Gal(b1-4)GlcNAc(b1-3)Gal(b1-4)GlcNAc(b1-2)[Gal(b1-4)GlcNAc(b1-3)Gal(b1-4)GlcNAc(b1-3)Gal(b1-4)GlcNAc(b1-3)Gal(b1-4)GlcNAc(b1-6)]Man(a1-6)[Gal(b1-4)GlcNAc(b1-3)Gal(b1-4)GlcNAc(b1-3)Gal(b1-4)GlcNAc(b1-3)Gal(b1-4)GlcNAc(b1-2)Man(a1-3)]Man(b1-4)GlcNAc(b1-4)[Fuc(a1-6)]GlcNAc", "how_it_was_run": "as §1"}, "[9]": {"molecular_target": "Gal(b1-4)GlcNAc(b1-3)Gal(b1-4)GlcNAc(b1-3)Gal(b1-4)GlcNAc(b1-3)Gal(b1-4)GlcNAc(b1-3)Gal(b1-4)GlcNAc(b1-2)Man(a1-3)[Gal(b1-4)GlcNAc(b1-3)Gal(b1-4)GlcNAc(b1-3)Gal(b1-4)GlcNAc(b1-3)Gal(b1-4)GlcNAc(b1-3)Gal(b1-4)GlcNAc(b1-2)Man(a1-6)]Man(b1-4)GlcNAc(b1-4)GlcNAc", "how_it_was_run": "as §1"}, "[10]": {"molecular_target": "Gal(b1-4)GlcNAc(b1-3)Gal(b1-4)GlcNAc(b1-3)Gal(b1-4)GlcNAc(b1-3)Gal(b1-4)GlcNAc(b1-3)Gal(b1-4)GlcNAc(b1-2)Man(a1-3)[Gal(b1-4)GlcNAc(b1-3)Gal(b1-4)GlcNAc(b1-3)Gal(b1-4)GlcNAc(b1-3)Gal(b1-4)GlcNAc(b1-3)Gal(b1-4)GlcNAc(b1-2)Man(a1-6)]Man(b1-4)GlcNAc(b1-4)[Fuc(a1-6)]GlcNAc", "how_it_was_run": "as §1"}, "[11]": {"molecular_target": "Gal(b1-4)GlcNAc(b1-3)Gal(b1-4)GlcNAc(b1-3)Gal(b1-4)GlcNAc(b1-3)Gal(b1-4)GlcNAc(b1-3)Gal(b1-4)GlcNAc(b1-2)[Gal(b1-4)GlcNAc(b1-3)Gal(b1-4)GlcNAc(b1-3)Gal(b1-4)GlcNAc(b1-3)Gal(b1-4)GlcNAc(b1-3)Gal(b1-4)GlcNAc(b1-6)]Man(a1-6)[Gal(b1-4)GlcNAc(b1-3)Gal(b1-4)GlcNAc(b1-3)Gal(b1-4)GlcNAc(b1-3)Gal(b1-4)GlcNAc(b1-3)Gal(b1-4)GlcNAc(b1-2)Man(a1-3)]Man(b1-4)GlcNAc(b1-4)[Fuc(a1-6)]GlcNAc", "how_it_was_run": "as §1"}, "[12]": {"molecular_target": "Gal(b1-4)GlcNAc(b1-3)Gal(b1-4)GlcNAc(b1-3)Gal(b1-4)GlcNAc(b1-3)Gal(b1-4)GlcNAc(b1-3)Gal(b1-4)GlcNAc(b1-3)Gal(b1-4)GlcNAc(b1-2)Man(a1-3)[Gal(b1-4)GlcNAc(b1-3)Gal(b1-4)GlcNAc(b1-3)Gal(b1-4)GlcNAc(b1-3)Gal(b1-4)GlcNAc(b1-3)Gal(b1-4)GlcNAc(b1-3)Gal(b1-4)GlcNAc(b1-2)Man(a1-6)]Man(b1-4)GlcNAc(b1-4)GlcNAc", "how_it_was_run": "as §1"}, "[13]": {"molecular_target": "Gal(b1-4)GlcNAc(b1-3)Gal(b1-4)GlcNAc(b1-3)GalNAc", "how_it_was_run": "as §1"}, "[14]": {"molecular_target": "Gal(b1-4)GlcNAc(b1-3)Gal(b1-4)GlcNAc(b1-3)[Gal(b1-4)GlcNAc(b1-3)Gal(b1-4)GlcNAc(b1-6)]GalNAc", "how_it_was_run": "as §1"}, "[15]": {"molecular_target": "Gal(b1-4)GlcNAc(b1-3)Gal(b1-4)GlcNAc(b1-6)[Gal(b1-3)]GalNAc", "how_it_was_run": "as §1"}, "[16]": {"molecular_target": "Gal(b1-4)GlcNAc(b1-3)Gal(b1-4)[Fuc(a1-3)]GlcNAc(b1-3)Gal(b1-4)[Fuc(a1-3)]GlcNAc", "how_it_was_run": "as §1"}, "[17]": {"molecular_target": "Gal(b1-4)GlcNAc(b1-3)GalNAc", "how_it_was_run": "as §1"}, "[18]": {"molecular_target": "Gal(b1-4)GlcNAc(b1-3)[Fuc(a1-3)GlcNAc(b1-6)]Gal(b1-4)Glc", "how_it_was_run": "as §1"}, "[19]": {"molecular_target": "Gal(b1-4)GlcNAc(b1-3)[Gal(b1-4)GlcNAc(b1-6)]Gal(b1-4)GlcNAc", "how_it_was_run": "as §1"}, "[20]": {"molecular_target": "Gal(b1-4)GlcNAc(b1-3)[GlcNAc(b1-6)]Gal(b1-4)GlcNAc", "how_it_was_run": "as §1"}, "[21]": {"molecular_target": "Gal(b1-4)GlcNAc(b1-6)Gal(b1-4)GlcNAc", "how_it_was_run": "as §1"}, "[22]": {"molecular_target": "Gal(b1-4)GlcNAc(b1-6)GalNAc", "how_it_was_run": "as §1"}, "[23]": {"molecular_target": "Gal(b1-4)GlcNAc(b1-6)[Gal(b1-3)]GalNAc", "how_it_was_run": "as §1"}, "[24]": {"molecular_target": "Gal(b1-4)GlcNAc(b1-6)[Gal(b1-4)GlcNAc(b1-3)]GalNAc", "how_it_was_run": "as §1"}, "[25]": {"molecular_target": "Gal(b1-4)GlcNAc6P", "how_it_was_run": "as §1"}, "[26]": {"molecular_target": "Gal(b1-6)Gal", "how_it_was_run": "as §1"}, "[27]": {"molecular_target": "Gal3S(b1-3)GalNAc", "how_it_was_run": "as §1"}, "[28]": {"molecular_target": "Gal3S(b1-3)GlcNAc", "how_it_was_run": "as §1"}, "[29]": {"molecular_target": "Gal3S(b1-3)[Fuc(a1-4)]GlcNAc", "how_it_was_run": "as §1"}, "[30]": {"molecular_target": "Gal3S(b1-4)Glc", "how_it_was_run": "as §1"}},
  "note": "The other results are listed elsewhere or left out.",
  "data": [
    {"binder": "B1", "values": [
      {"measurement": "glycan array binding signal (z-score)", "setting": "[1]", "value": -0.047},
      {"measurement": "glycan array binding signal (z-score)", "setting": "[2]", "value": -0.064},
      {"measurement": "glycan array binding signal (z-score)", "setting": "[3]", "value": -0.061},
      {"measurement": "glycan array binding signal (z-score)", "setting": "[4]", "value": -0.083},
      {"measurement": "glycan array binding signal (z-score)", "setting": "[5]", "value": -0.013},
      {"measurement": "glycan array binding signal (z-score)", "setting": "[6]", "value": -0.072},
      {"measurement": "glycan array binding signal (z-score)", "setting": "[7]", "value": -0.042},
      {"measurement": "glycan array binding signal (z-score)", "setting": "[8]", "value": -0.054},
      {"measurement": "glycan array binding signal (z-score)", "setting": "[9]", "value": -0.084},
      {"measurement": "glycan array binding signal (z-score)", "setting": "[10]", "value": -0.046},
      {"measurement": "glycan array binding signal (z-score)", "setting": "[11]", "value": -0.061},
      {"measurement": "glycan array binding signal (z-score)", "setting": "[12]", "value": -0.079},
      {"measurement": "glycan array binding signal (z-score)", "setting": "[13]", "value": -0.039},
      {"measurement": "glycan array binding signal (z-score)", "setting": "[14]", "value": -0.075},
      {"measurement": "glycan array binding signal (z-score)", "setting": "[15]", "value": -0.068},
      {"measurement": "glycan array binding signal (z-score)", "setting": "[16]", "value": -0.063},
      {"measurement": "glycan array binding signal (z-score)", "setting": "[17]", "value": -0.059},
      {"measurement": "glycan array binding signal (z-score)", "setting": "[18]", "value": -0.078},
      {"measurement": "glycan array binding signal (z-score)", "setting": "[19]", "value": -0.076},
      {"measurement": "glycan array binding signal (z-score)", "setting": "[20]", "value": -0.028},
      {"measurement": "glycan array binding signal (z-score)", "setting": "[21]", "value": -0.071},
      {"measurement": "glycan array binding signal (z-score)", "setting": "[22]", "value": -0.017},
      {"measurement": "glycan array binding signal (z-score)", "setting": "[23]", "value": -0.042},
      {"measurement": "glycan array binding signal (z-score)", "setting": "[24]", "value": -0.058},
      {"measurement": "glycan array binding signal (z-score)", "setting": "[25]", "value": -0.083},
      {"measurement": "glycan array binding signal (z-score)", "setting": "[26]", "value": -0.055},
      {"measurement": "glycan array binding signal (z-score)", "setting": "[27]", "value": -0.066},
      {"measurement": "glycan array binding signal (z-score)", "setting": "[28]", "value": -0.058},
      {"measurement": "glycan array binding signal (z-score)", "setting": "[29]", "value": -0.054},
      {"measurement": "glycan array binding signal (z-score)", "setting": "[30]", "value": -0.072}
    ]}
  ]
}
